The text below walks through data of the supplement of paper PMC9938546.

Counter-ions that a name gives are not always drawn. The list shows a part of the results. Repeats are few or missing, and single values can be far off.
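Also: viability estimated indirectly by image-based GFP quantification with live-cell imaging of the constitutively GFP-expressing human colorectal cancer line, no immune cells added.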

The subject of the experiment is HCT116-GFP. Kind of experiment: HCT116-GFP viability (GFP intensity) relative to untreated control, monoculture; higher = less cancer cell killing. To be noted: culture: HCT116-GFP monoculture; 10 µM; 72 h.
Take `CCC(C)(C)C(=O)O[C@H]1C[C@@H](C)C=C2C=C[C@H](C)[C@H](CC[C@@H]3C[C@@H](O)CC(=O)O3)[C@H]21` [Simvastatin]: the HCT116-GFP viability was 99.9%.
The figure for `CC(=O)Oc1ccc(C(c2ccc(OC(C)=O)cc2)c2ccccn2)cc1` [Bisacodyl] is 93%; for `O=C1Nc2ccc(Cl)cc2[C@@](C#CC2CC2)(C(F)(F)F)O1` [Efavirenz] it is 93.6%; for `Nc1ccc(C(=O)O)c(O)c1` [4-aminosalicylic acid] it is 112%.
Take `CC[N+](C)(CC)CCC[n+]1c(-c2ccccc2)c2cc(N)ccc2c2ccc(N)cc21` [Propidium iodide]: the HCT116-GFP viability turned out to be 83%.
For the compound `O=C(O)c1ccccc1Nc1cccc(C(F)(F)F)c1` [Flufenamic acid], the HCT116-GFP viability was 104%.
As for `O=C1O[C@H]([C@@H](O)CO)C(O)=C1O` [Ascorbic acid], the HCT116-GFP viability was found to be 92.3%.
For `Clc1ccc(C(c2ccccc2Cl)C(Cl)Cl)cc1` (stereo not given) [Mitotane], the HCT116-GFP viability stood at 101%.
The figure for `CN(C)CCOC(=O)C(c1ccccc1)C1(O)CCCC1` (stereo not given) [Cyclopentolate hydrochloride] is 94.3%.
The result for `Nc1ccc(/N=N/c2ccccc2)c(N)n1` [Phenazopyridine hydrochloride] reads 88.5%; that for `CCC(=O)O[C@]1(C(=O)SCF)[C@H](C)C[C@H]2[C@@H]3C[C@H](F)C4=CC(=O)C=C[C@]4(C)[C@@]3(F)[C@@H](O)C[C@@]21C` [Fluticasone propionate], 109%; that for `OCCN1CCN(CC/C=C2/c3ccccc3Sc3ccc(Cl)cc32)CC1` [Zuclopenthixol dihydrochloride], 75.8%.
On to `Nc1nc(/C(=C/CC(=O)O)C(=O)N[C@@H]2C(=O)N3C(C(=O)O)=CCS[C@H]23)cs1` [Ceftibuten], for which the HCT116-GFP viability stood at 95.5%.
The figure for `CCN(CC)CCNC(=O)c1cc(Br)c(N)cc1OC` [Bromopride] is 90%; for `OC(CCN1CCCCC1)(c1ccccc1)c1ccccc1` [Pridinol methanesulfonate salt] it is 91.8%.
Consider `CCCCC(=O)N(Cc1ccc(-c2ccccc2-c2nnn[nH]2)cc1)[C@H](C(=O)O)C(C)C` [Valsartan], for which the HCT116-GFP viability was 84.6%.
As to `CC(C)NNC(=O)c1ccncc1` [Iproniazide phosphate], the HCT116-GFP viability worked out at 100%.
The figure for `O=C1c2cccc(O)c2C(=O)c2c(O)cccc21` [1,8-Dihydroxyanthraquinone] is 19.2%; for `O=C(O)CCC(=O)c1ccc(-c2ccccc2)cc1` [Fenbufen] it is 85.3%; for `N[C@@H](Cc1ccc(O)c(O)c1)C(=O)O` [Levodopa] it is 95.4%.
Turning to `CN1CCN2c3ccccc3Cc3ccccc3C2C1` (stereo not given) [Mianserine hydrochloride], the HCT116-GFP viability came to 55.2%.
The result for `O=C(NC(Cc1cc(=O)[nH]c2ccccc12)C(=O)O)c1ccc(Cl)cc1` (stereo not given) [Rebamipide] reads 110%; that for `Nc1ncn(C2OC(CO)C(O)C2O)c(=O)n1` (stereo not given) [Azacytidine-5], 46.9%; that for `CC(C)(C)NC[C@H](O)COc1cccc2c1CCCC2=O` [(-) -Levobunolol hydrochloride], 90.6%.
As to `C[N+](C)(C)CCOC(N)=O` [Carbachol], the HCT116-GFP viability is 99.6%.
The result for `C[C@H](CCC(=O)O)[C@H]1CC[C@H]2[C@@H]3C(=O)C[C@@H]4CC(=O)CC[C@]4(C)[C@H]3CC(=O)[C@]12C` [Dehydrocholic acid] reads 97.7%; that for `CCOC(=O)C1=C(C)NC(C)=C(C(=O)OC)C1c1cccc(Cl)c1Cl` (stereo not given) [Felodipine], 72.6%.
The figure for `O=C1c2c(O)ccc(O)c2C(=O)c2c(NCCNCCO)ccc(NCCNCCO)c21` [Mitoxantrone dihydrochloride] is 1.9%.
Regarding `COc1cc(N)c(Cl)cc1C(=O)NC1CCN(Cc2ccccc2)CC1` [Clebopride maleate], the HCT116-GFP viability is 107%.
`Nc1nc(N)nc(-c2cc(Cl)ccc2Cl)n1` [Irsogladine maleate]: the HCT116-GFP viability was 94.6%.
Take `CCN1CCCC1CNC(=O)c1cc(S(=O)(=O)CC)c(N)cc1OC` (stereo not given) [Amisulpride]: the HCT116-GFP viability was 96.3%.
The result for `CC(C)[C@H]1CC[C@H](C(=O)N[C@H](Cc2ccccc2)C(=O)O)CC1` [Nateglinide] reads 99.1%; that for `CC(C)c1nc(CN(C)C(=O)N[C@H](C(=O)N[C@@H](Cc2ccccc2)C[C@H](O)[C@H](Cc2ccccc2)NC(=O)OCc2cncs2)C(C)C)cs1` [Ritonavir], 99.1%.
The result for `COc1ccccc1OCCNCC(O)COc1cccc2[nH]c3ccccc3c12` (stereo not given) [Carvedilol] reads 47.5%; that for `CC1CCc2cc(F)cc3c(=O)c(C(=O)O)cn1c23` (stereo not given) [Flumequine], 87.9%; that for `O=C(NCC1CCCCN1)c1cc(OCC(F)(F)F)ccc1OCC(F)(F)F` (stereo not given) [Flecainide acetate], 104%.
The result for `CCCCOc1ccc(OCCCN2CCOCC2)cc1` [Pramoxine hydrochloride] reads 98.4%; that for `CCOC(=O)C1=C(C)NC(C)=C(C(=O)OC)C1c1cccc([N+](=O)[O-])c1` (stereo not given) [Nitrendipine], 100%.
On to `CCn1cc(C(=O)O)c(=O)c2cc(F)c(N3CCNCC3)cc21` [Norfloxacin], for which the HCT116-GFP viability is 91.9%.
Take `O=C(c1ccc(OCCN2CCCCC2)cc1)c1c(-c2ccc(O)cc2)sc2cc(O)ccc12` [Raloxifene hydrochloride]: the HCT116-GFP viability was found to be 81.4%.
`CC(CN1c2ccccc2Sc2ccccc21)N(C)C` (stereo not given) [Promethazine hydrochloride]: the HCT116-GFP viability is 99.3%.
The figure for `NS(=O)(=O)c1cc2c(cc1C(F)(F)F)NC(Cc1ccccc1)NS2(=O)=O` (stereo not given) [Bendroflumethiazide] is 94.7%; for `CN(C)CCCC1(c2ccc(F)cc2)OCc2cc(C#N)ccc21` (stereo not given) [Citalopram Hydrobromide] it is 92.8%.
Consider `CCCC(CCC)C(=O)O` [Valproic acid], for which the HCT116-GFP viability was determined as 78.8%.
The result for `Cc1onc(-c2ccccc2)c1C(=O)N[C@@H]1C(=O)N2[C@@H]1SC(C)(C)[C@@H]2C(=O)O` [Oxacillin sodium] reads 95.8%.
As to `O=C(O)CNC(=O)C(CS)Cc1ccccc1` (stereo not given) [Thiorphan], the HCT116-GFP viability was found to be 106%.
The result for `CN(C)CCC(c1ccc(Cl)cc1)c1ccccn1` (stereo not given) [Chlorpheniramine maleate] reads 89.5%; that for `COc1cc(N)c(Cl)cc1C(=O)NC1CCN(CCCOc2ccc(F)cc2)CC1OC` (stereo not given) [Cisapride], 77.3%.
Consider `COC1=CC(=O)C[C@@H](C)[C@]12Oc1c(Cl)c(OC)cc(OC)c1C2=O` [Griseofulvin], for which the HCT116-GFP viability was found to be 61.1%.
The figure for `COC(=O)Nc1nc2cc(C(=O)c3ccc(F)cc3)ccc2[nH]1` [Flubendazol] is 8.36%.
